Reference: patent publication US20210346328A1, “COMPOSITIONS AND METHODS FOR TREATING METABOLIC DISORDERS” (The Johns Hopkins University, priority 2018, published 2021)

Assays:
[1] = system: EP4Avil−/− mice and COX2OC−/− mice; assay: Propranolol rescue of bone loss in knockout mice (μCT of femurs); type: in vivo, mouse; details: 0.5 mg per kg per day propranolol for 6 weeks
[2] = system: DRG neurons; assay: Calcium imaging of isolated DRG neurons; details: DRG neurons of EP4Avil−/− mice, with or without PGE2 pre-treatment

| SMILES | bone phenotype (μCT of femurs) ([1]; COX2OC−/− mice) | bone phenotype (μCT of femurs) ([1]; EP4Avil−/− mice) | DRG neuron activation, calcium imaging [2] |
| --- | --- | --- | --- |
| CC(C)NCC(O)COc1cccc2ccccc12 (stereo not drawn) [propranolol] | partially rescued | partially rescued |  |
| CCCCC[C@H](O)/C=C/[C@H]1[C@H](O)CC(=O)[C@@H]1C/C=C\CCCC(=O)O [PGE2, prostaglandin E2] |  |  | reduced significantly |
